Data taken from the supplement of paper PMC8728848.
The other results are listed elsewhere or left out.

What was measured:
Assay in all cases: glycan array binding signal (z-score within array); higher = stronger binding
Conditions in all cases: glycan notation: IUPAC condensed, linker removed
[1] = target: Fuc(a1-2)[GalNAc(a1-3)]Gal(b1-3)GlcNAc(b1-3)GalNAc
How it was run: (§1)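 Glycan array data were curated from 3228 arrays in the Consortium for Functional Glycomics database and kept only where the protein sequence was available. Glycan names were converted to IUPAC-condensed notation, and columns mapping to the same glycan were averaged. The binding signal is a within-array Z-score, averaged across arrays of the same protein sequence at different concentrations or buffers and across linkers. Negative Z-scores can be read as non-binding.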

[2] = target: Fuc(a1-2)[GalNAc(a1-3)]Gal(b1-3)GlcNAc(b1-6)GalNAc
How it was run: as §1

[3] = target: Fuc(a1-2)[GalNAc(a1-3)]Gal(b1-4)Glc
How it was run: as §1

[4] = target: Fuc(a1-2)[GalNAc(a1-3)]Gal(b1-4)GlcNAc
How it was run: as §1

[5] = target: Fuc(a1-2)[GalNAc(a1-3)]Gal(b1-4)GlcNAc(b1-2)Man
How it was run: as §1

[6] = target: Fuc(a1-2)[GalNAc(a1-3)]Gal(b1-4)GlcNAc(b1-2)Man(a1-3)[Fuc(a1-2)[GalNAc(a1-3)]Gal(b1-4)GlcNAc(b1-2)Man(a1-6)]Man(b1-4)GlcNAc(b1-4)GlcNAc
How it was run: as §1

[7] = target: Fuc(a1-2)[GalNAc(a1-3)]Gal(b1-4)GlcNAc(b1-2)Man(a1-3)[Fuc(a1-2)[GalNAc(a1-3)]Gal(b1-4)GlcNAc(b1-2)Man(a1-6)]Man(b1-4)GlcNAc(b1-4)[Fuc(a1-6)]GlcNAc
How it was run: as §1

[8] = target: Fuc(a1-2)[GalNAc(a1-3)]Gal(b1-4)GlcNAc(b1-3)Gal(b1-4)GlcNAc
How it was run: as §1

[9] = target: Fuc(a1-2)[GalNAc(a1-3)]Gal(b1-4)GlcNAc(b1-3)Gal(b1-4)GlcNAc(b1-3)Gal(b1-4)GlcNAc
How it was run: as §1

[10] = target: Fuc(a1-2)[GalNAc(a1-3)]Gal(b1-4)GlcNAc(b1-3)GalNAc
How it was run: as §1

[11] = target: Fuc(a1-2)[GalNAc(a1-3)]Gal(b1-4)GlcNAc(b1-3)[Fuc(a1-2)[GalNAc(a1-3)]Gal(b1-4)GlcNAc(b1-6)]GalNAc
How it was run: as §1

[12] = target: Fuc(a1-2)[GalNAc(a1-3)]Gal(b1-4)GlcNAc(b1-6)GalNAc
How it was run: as §1

[13] = target: Fuc(a1-2)[GalNAc(a1-3)]Gal(b1-4)[Fuc(a1-3)]GlcNAc
How it was run: as §1

[14] = target: Fuc(a1-2)[GalNAc(a1-3)]Gal(b1-4)[Fuc(a1-3)]GlcNAc(b1-3)GalNAc
How it was run: as §1

[15] = target: Fuc(a1-2)[GalNAc(a1-4)]Gal(b1-4)GlcNAc
How it was run: as §1

[16] = target: Fuc(a1-2)[GalNAc(b1-3)]Gal
How it was run: as §1

Fuc(a1-3)GlcNAc = target: Fuc(a1-3)GlcNAc
How it was run: as §1

[17] = target: Fuc(a1-3)[Gal(b1-4)]Glc6S
How it was run: as §1

[18] = target: Fuc(a1-3)[Gal(b1-4)]GlcNAc
How it was run: as §1

[19] = target: Fuc(a1-3)[Gal(b1-4)]GlcNAc(b1-2)Man
How it was run: as §1

[20] = target: Fuc(a1-3)[Gal(b1-4)]GlcNAc(b1-2)Man(a1-3)[Fuc(a1-3)[Gal(b1-4)]GlcNAc(b1-2)Man(a1-6)]Man(b1-4)GlcNAc(b1-4)GlcNAc
How it was run: as §1

[21] = target: Fuc(a1-3)[Gal(b1-4)]GlcNAc(b1-2)Man(a1-3)[Fuc(a1-3)[Gal(b1-4)]GlcNAc(b1-2)Man(a1-6)]Man(b1-4)GlcNAc(b1-4)[Fuc(a1-6)]GlcNAc
How it was run: as §1

[22] = target: Fuc(a1-3)[Gal(b1-4)]GlcNAc(b1-3)Gal(b1-3)[Fuc(a1-4)]GlcNAc
How it was run: as §1

[23] = target: Fuc(a1-3)[Gal(b1-4)]GlcNAc(b1-3)Gal(b1-4)[Fuc(a1-3)]GlcNAc
How it was run: as §1

[24] = target: Fuc(a1-3)[Gal(b1-4)]GlcNAc(b1-3)Gal(b1-4)[Fuc(a1-3)]GlcNAc(b1-3)Gal(b1-4)[Fuc(a1-3)]GlcNAc
How it was run: as §1

[25] = target: Fuc(a1-3)[Gal(b1-4)]GlcNAc(b1-3)GalNAc
How it was run: as §1

[26] = target: Fuc(a1-3)[Gal(b1-4)]GlcNAc(b1-6)GalNAc
How it was run: as §1

[27] = target: Fuc(a1-3)[Gal(b1-4)]GlcNAc(b1-6)[Gal(b1-3)GlcNAc(b1-3)]Gal(b1-4)Glc
How it was run: as §1

[28] = target: Fuc(a1-3)[Gal(b1-4)]GlcNAc6S
How it was run: as §1

[29] = target: Fuc(a1-3)[Gal3S(b1-4)]Glc
How it was run: as §1

[30] = target: Fuc(a1-3)[Gal3S(b1-4)]GlcNAc
How it was run: as §1

[31] = target: Fuc(a1-3)[Gal3S(b1-4)]GlcNAc6S
How it was run: as §1

[32] = target: Fuc(a1-3)[GalNAc(b1-4)]GlcNAc
How it was run: as §1

[33] = target: Fuc(a1-3)[GalNAc(b1-4)]GlcNAc6S
How it was run: as §1

Fuc(a1-4)GlcNAc = target: Fuc(a1-4)GlcNAc
How it was run: as §1

Fuc(b1-3)GlcNAc = target: Fuc(b1-3)GlcNAc
How it was run: as §1

Gal(a1-2)Gal = target: Gal(a1-2)Gal
How it was run: as §1

B1: DC-ASGPR L+GEE (Homo sapiens) (protein)
chain: MTRTYENFQYLENKVKVQGFKNGPLPLQSLLQRLRSGPCHLLLSLGLGLLLLVIICVVGFQNSKFQRDLVTLRTDFSNFTSNTVAEIQALTSQGSSLEETIASLKAEVEGFKQERQAGVSELQEHTTQKAHLGHCPHCPSVCVPVHSEMLLRVQQLVQDLKKLTCQVATLNNNGEEASTEGTCCPVNWVEHQDSCYWFSHSGMSWAEAEKYCQLKNAHLVVINSREEQNFVQKYLGSAYTWMGLSDPEGAWKWVDGTDYATGFQNWKPGQPDDWQGHGLGGGEDCAHFHPDGRWNDDVCQRPYHWVCEAGLGQTSQESH
[1]
  glycan array binding signal (z-score): 0.253
[2]
  glycan array binding signal (z-score): 1.35
[3]
  glycan array binding signal (z-score): 1.44
[4]
  glycan array binding signal (z-score): 0.538
[5]
  glycan array binding signal (z-score): 0.54
[6]
  glycan array binding signal (z-score): 1.08
[7]
  glycan array binding signal (z-score): 0.775
[8]
  glycan array binding signal (z-score): -0.799
[9]
  glycan array binding signal (z-score): -0.097
[10]
  glycan array binding signal (z-score): -0.176
[11]
  glycan array binding signal (z-score): 1.6
[12]
  glycan array binding signal (z-score): 3.41
[13]
  glycan array binding signal (z-score): -0.079
[14]
  glycan array binding signal (z-score): -0.572
[15]
  glycan array binding signal (z-score): 2.59
[16]
  glycan array binding signal (z-score): 3.61
Fuc(a1-3)GlcNAc
  glycan array binding signal (z-score): -0.476
[17]
  glycan array binding signal (z-score): -0.597
[18]
  glycan array binding signal (z-score): -0.165
[19]
  glycan array binding signal (z-score): -0.482
[20]
  glycan array binding signal (z-score): -0.506
[21]
  glycan array binding signal (z-score): -0.226
[22]
  glycan array binding signal (z-score): -0.793
[23]
  glycan array binding signal (z-score): 0.074
[24]
  glycan array binding signal (z-score): -0.523
[25]
  glycan array binding signal (z-score): -0.225
[26]
  glycan array binding signal (z-score): -0.101
[27]
  glycan array binding signal (z-score): -0.363
[28]
  glycan array binding signal (z-score): 0.007
[29]
  glycan array binding signal (z-score): -0.257
[30]
  glycan array binding signal (z-score): -0.343
[31]
  glycan array binding signal (z-score): 0.21
[32]
  glycan array binding signal (z-score): 1.22
[33]
  glycan array binding signal (z-score): 0.838
Fuc(a1-4)GlcNAc
  glycan array binding signal (z-score): -0.09
Fuc(b1-3)GlcNAc
  glycan array binding signal (z-score): -0.237
Gal(a1-2)Gal
  glycan array binding signal (z-score): -0.199
